PubChem BioAssay AID588342 (National Center for Advancing Translational Sciences (NCATS), 2011)
The whole screen tested about 360,000 compounds, of which about 25,000 (6.9%) were called active. This list was built around the results that the source calls inconclusive (neither active nor inactive); the mix of calls is not that of the screen. The call rests on the fitted dose curve; in most records, active means well fitted inhibition curve with a large enough effect; inconclusive means small, poorly fitted or top-dose-only effect; inactive means flat fitted curve, though single readings scatter. A potency beside an inconclusive call is a rough fit, not a confirmed value.

Each molecule was assayed against Luciferin 4-monooxygenase (Photinus pyralis) (UniProt P08659) (assay: qHTS profiling assay for firefly luciferase inhibitor/activator using purifed enzyme and Km concentrations of substrates (counterscreen for miR-21 project)). Details: purified FLuc, luminescence inhibition; series mostly up to 57.5 µM.
In short: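 Biochemical qHTS of compounds, final roughly 60 µM downward over six points, against 10 nM purified firefly luciferase using Km concentrations of substrates (10 uM D-luciferin, 10 uM ATP) in Tris acetate pH 7.5 buffer; luminescence output.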
Further: nearly all actives have a fitted effect of over 55% in size.
Potency means the concentration at half of the fitted maximal effect; tags describe the fitted curve by direction and shape.

Chain of UniProt P08659 (P08659 whole entry, looked up): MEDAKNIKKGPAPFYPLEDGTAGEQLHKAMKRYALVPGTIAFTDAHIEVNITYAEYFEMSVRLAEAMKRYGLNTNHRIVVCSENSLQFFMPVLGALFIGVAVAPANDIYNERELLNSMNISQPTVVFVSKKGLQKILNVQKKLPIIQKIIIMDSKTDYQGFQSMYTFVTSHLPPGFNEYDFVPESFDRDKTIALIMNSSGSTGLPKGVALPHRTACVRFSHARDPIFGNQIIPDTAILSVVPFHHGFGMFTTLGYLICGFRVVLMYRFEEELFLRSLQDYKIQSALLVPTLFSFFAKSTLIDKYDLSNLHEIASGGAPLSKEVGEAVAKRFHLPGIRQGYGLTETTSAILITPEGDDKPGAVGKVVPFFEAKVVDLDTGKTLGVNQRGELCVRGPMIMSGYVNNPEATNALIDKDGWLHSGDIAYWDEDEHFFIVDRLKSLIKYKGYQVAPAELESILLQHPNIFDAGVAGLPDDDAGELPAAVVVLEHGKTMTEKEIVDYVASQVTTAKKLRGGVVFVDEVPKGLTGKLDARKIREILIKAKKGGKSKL

Compound	Potency
Cc1ccc2nc(-c3ccccc3O)c(Nc3ccc4c(c3)OCCO4)n2c1	inconclusive: 37.9 µM [inhibitor, partial curve, poor fit]
O=C(NC(Cc1c[nH]c2ccccc12)C(=O)O)c1ccc(F)cc1 (centres undefined)	inconclusive: 30.1 µM [inhibitor, partial curve, poor fit]
COc1ccccc1-c1nc2c3ccccc3nc(=S)n2[nH]1	inconclusive: 37.9 µM [inhibitor, single point]
COc1cc(C(=O)Nc2ccc(F)cc2Cl)ccc1OCC(=O)N1CCOCC1	inconclusive: 16.9 µM [inhibitor, partial curve]
O=C(COC(=O)c1cccc(-n2cnnn2)c1)c1ccc(Br)cc1	active: 6.75 µM
O=C(NCc1cccnc1)c1ccc(COc2ccccc2Cl)cc1	inconclusive: 19 µM [inhibitor, partial curve]
COc1cc2ccccc2cc1C(=O)Nc1nnc(-c2ccncc2)o1	inactive
Cc1ccc2c(c1)C(=O)C(=O)N2CCOc1ccccc1	active: 13.5 µM
CC(C)c1ccc(C2CC(=O)c3cnc(NC(=O)c4ccco4)nc3C2)cc1 (centres undefined)	inconclusive: 37.9 µM [inhibitor, partial curve, poor fit]
O=C(NCCc1ccc2c(c1)OCCO2)c1ccccn1	active: 12 µM
O=C(CSc1nc(-c2cccs2)cc(C(F)(F)F)n1)Nc1cc(OCC(F)(F)F)cc([N+](=O)[O-])c1	inactive
COc1ccc2ccccc2c1/C=N/NC(=O)c1cc(C)[nH]n1	inconclusive: 42.6 µM [inhibitor, partial curve, poor fit]
C=CCNC(=O)CCc1nnc(C2(c3ccc(Cl)cc3)CCC2)o1	active: 16.9 µM
COc1ccc(-c2noc(CCC(=O)NCCc3ccccc3)n2)cc1	inactive
O=C1COc2ccc(C(=O)COC(=O)CCSc3ccc(Cl)cc3)cc2N1	inactive
NC(=O)Cc1nc(-c2ccc(Br)cc2)cs1	inconclusive: 37.9 µM [inhibitor, partial curve, poor fit]
Brc1ccc(-c2ncc(-c3ccccc3)cn2)cc1	active: 0.426 µM
COc1ccccc1NC(=S)NNC(=O)c1nn(C)c(C)c1Br	active: 15.1 µM
CN=c1scc(-c2ccccc2Br)n1/N=C/c1ccc[nH]1	active: 1.07 µM
CCCCNC(=O)/C=C/c1cccs1	inconclusive: 19 µM [inhibitor, partial curve]
O=C(O)C(c1ccccc1)N1C(=O)/C(=C/c2cccs2)SC1=S (centres undefined)	inconclusive: 26.9 µM [inhibitor, single point]
O=C(NCCSc1ncc(-c2ccc(F)cc2)[nH]1)c1ccc2c(c1)OCO2	inconclusive: 19 µM [inhibitor, partial curve]
CCOc1ccc(CC(=O)Nc2c(C(=O)c3ccc(F)cc3)oc3ccccc23)cc1OCC	inactive
Clc1ccccc1OCc1nc(-c2ccccn2)no1	active: 1.9 µM
O=C(Nc1cccc(NC(=O)N2CCN(c3ccccc3)CC2)c1)N1CCN(c2ccccc2)CC1	inconclusive: 37.9 µM [inhibitor, partial curve, poor fit]

Compound	Potency
CN(C)S(=O)(=O)c1cc(NC(=O)COC(=O)CCSc2ccc(Cl)cc2)ccc1Cl	inconclusive: 23.9 µM [inhibitor, partial curve]
CCN(CC)S(=O)(=O)c1ccc(C(=O)OCCN2C(=O)CCC2=O)cc1	inactive
O=C(NCCC1=CCCCC1)C1CC(=O)N(Cc2ccccc2)C1 (centres undefined)	inactive
CN(C)CCNC(=O)C(=O)Nc1cc2c3c(c1)CCN3C(=O)CC2	inactive
O=C(Nc1ccccc1C(=O)O)c1cc(S(=O)(=O)N2CCCCC2)c(Cl)cc1Cl	inconclusive: 21.3 µM [inhibitor, single point]
Cc1cccc2nc(COc3ccc(Cl)c4cccnc34)cn12	active: 12 µM
CC(C)(C)C(=O)OCc1cn(-c2ccccc2)nn1	inconclusive: 26.9 µM [inhibitor, single point]
O=C(CCN1CCC(c2ccccc2)C1)c1ccc2c(c1)OCCO2 (centres undefined)	inactive
CCn1cc(Br)c(C(=O)Nc2ccc(F)cc2F)n1	inconclusive: 26.9 µM [inhibitor, partial curve, poor fit]
COc1ccc(-c2nnc(SCC(=O)NCC3CCCO3)o2)cc1 (centres undefined)	inconclusive: 23.9 µM [inhibitor, partial curve, poor fit]
O=C(Nc1ccccc1F)c1ccc2snnc2c1	inconclusive: 21.3 µM [inhibitor, single point]
Cc1[nH]nc2c1-c1nc3ccccc3nc1C(C)(C)C2	inactive
O=C(Nc1ccccc1)/C(=C/c1ccccc1)c1ccccc1	inconclusive: 9.53 µM [inhibitor, partial curve, poor fit]
COc1cccc(/C=C2/Sc3ccc(C(=O)NCCCN4CCCC4)cc3NC2=O)c1	inconclusive: 23.9 µM [inhibitor, single point]
Fc1ccc(Cc2nnc(-c3cccs3)o2)cc1	inconclusive: 16.9 µM [inhibitor, partial curve]
O=C(/C=C/c1ccccc1)NC(=S)NNC(=O)c1cnccn1	inconclusive: 26.9 µM [inhibitor, partial curve, poor fit]
CC(=O)c1ccc(N(C(=O)Cc2c[nH]c3ccccc23)C(C(=O)NC2CCCCC2)c2cccs2)cc1 (centres undefined)	inconclusive: 26.9 µM [inhibitor, partial curve, poor fit]
Cn1c(COc2ccc(F)cc2)nc2ccccc21	active: 13.5 µM
O=C(NC(=S)N1CCN(c2ccc([N+](=O)[O-])cc2)CC1)c1ccco1	inconclusive: 0.0085 µM [inhibitor, partial curve, poor fit]
O=[N+]([O-])c1ccc(-n2cc(-c3ccccc3)nn2)cc1	inconclusive: 23.9 µM [inhibitor, partial curve]
COc1ccc(CNC(=O)Cn2ccc3cc(S(=O)(=O)N4CCCCCC4)ccc32)cc1OC	inactive
Cc1cc(-c2ccc(N3C(=O)CCC3=O)c(C)c2)ccc1N1C(=O)CCC1=O	inconclusive: 23.9 µM [inhibitor, single point]
C=CCNC(=O)c1ccccc1NC(=O)Nc1ccccc1	active: 19 µM
CCOCCCNC(=O)C(c1ccc(OC)cc1)N(Cc1cccs1)C(=O)c1ccc(NC(C)=O)cc1 (centres undefined)	inactive
Cc1cccc(NC(=O)c2cc(=O)c3ccccc3o2)n1	inconclusive: 37.9 µM [inhibitor, partial curve, poor fit]

Compound	Potency
N#C/C=C1\Sc2ccccc2C(=O)N1CC(=O)N1CCN(S(=O)(=O)c2ccccc2)CC1	active: 9.53 µM
CC(=O)Cn1cnc2c(sc3nc(C)cc(C)c32)c1=O	active: 15.1 µM
Fc1cccc(-c2nc(-c3ccncc3)no2)c1	inconclusive: 15.1 µM [inhibitor, partial curve]
Cc1cccc(OCC(=O)Nc2ccc3c(c2)C(=O)NC3=O)c1	inactive
Cc1ccc(C)c(Cn2c(=O)c3c(nc4n3CCN4c3ccc(F)cc3)n(C)c2=O)c1	inconclusive: 13.5 µM [inhibitor, partial curve, poor fit]
CCn1c(CN2CCC(C)CC2)nc2cc(NC(=O)c3ccccc3[N+](=O)[O-])ccc21	inactive
CCCCn1c(SCC(=O)Nc2nnc(C(C)C)s2)nc2c1c(=O)n(C)c(=O)n2C	inactive
CCC(C)(C)NC(=O)CCCSc1nc2ccccc2s1	active: 23.9 µM
CCOc1ccc(C(=O)/C=C/c2cc(OC)c(OC)c(OC)c2)cc1	inconclusive: 23.9 µM [inhibitor, partial curve]
COc1cc(-c2nc(-c3cccc(C)c3)no2)cc(OC)c1OC	inconclusive: 21.3 µM [inhibitor, partial curve, poor fit]
CC(=O)NCCNC(=O)CCCc1nnc2n(CCC(C)C)c(=O)c3sccc3n12	inactive
CCOC(=O)c1c(C)[nH]c(CCC(=O)NCCCN2CCN(c3cccc(Cl)c3)CC2)c1C	inactive
CCOc1ccc(-n2c(Cc3ccccc3)nnc2SCc2nc(-c3ccccc3C)no2)cc1	inactive
O=C(c1noc2c1CSc1ccccc1-2)N1CCN(c2ccc(Cl)cc2)CC1	inactive
COc1cccc(NC(=O)c2ccc(-c3ccccc3[N+](=O)[O-])o2)c1	inconclusive: 15.1 µM [inhibitor, partial curve]
Cc1ccc(CNC(=O)CCCc2c[nH]c3ccccc23)cc1	inconclusive: 37.9 µM [inhibitor, single point]
Cc1nc(N)sc1-c1csc(Nc2ccc(S(N)(=O)=O)cc2)n1	inconclusive: 37.9 µM [inhibitor, single point]
O=C(CSc1nnc(-c2ccccc2Br)o1)N1CCOCC1	active: 19 µM
O=C(NOCc1ccccc1)c1ccc(Cl)cc1	active: 1.2 µM
O=C1OCCC1Sc1nnc(-c2ccc(O)cc2)o1 (centres undefined)	inconclusive: 23.9 µM [inhibitor, single point]
CC(O)c1nc2ccc(Cc3ccc4nc(C(C)O)[nH]c4c3)cc2[nH]1 (centres undefined)	inconclusive: 26.9 µM [inhibitor, partial curve, poor fit]
C#CC(C)OC(=O)Nc1cnccc1C(F)(F)F (centres undefined)	inactive
CC(=O)Nc1ccc(S(=O)(=O)Nc2cccc(-c3ccc(N4CCC(C)CC4)nn3)c2)cc1	active: 0.536 µM
O=C(O)CC1(CC(=O)NCc2ccc(-c3cccs3)cc2)CCCCC1	inconclusive: 37.9 µM [inhibitor, single point]
